This passage reports cell count results from the supplement of paper PMC4604168 (melanoma cell lines).

Test systems include MZ2-MEL; MeWo; RPMI7951; RVH-421; SkMel28; SkMel2; SkMel30; UACC62; WM115; WM1716; WM1745; WM3526; WM3619; WM451Lu; SkMel5; UACC257.
Holding throughout (experiment): cell count relative to DMSO control; melanoma cells; higher = more viable cells
What all share (settings): library dose: low library concentration; 72 h

The other results are listed elsewhere or left out. Many values rest on one well or one pass, so single values are uncertain.
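Note: cell number obtained by counting DAPI-stained nuclei in high-throughput microscope images with image analysis software, screen run in 1,536-well plates.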

Consider `CCCCCCCCc1ccc(CCC(N)(CO)CO)cc1` [fingolimod] + Clc1ccc(Nc2nnc(Cc3ccncc3)c3ccccc23)cc1 [vatalanib] (first compound 2 µM, partner dose 2 µM), for which the cell count is 101% in the assay on MZ2-MEL; 89.4% in the assay with MeWo; 52.3% with RPMI7951; 93.1% in the assay on RVH-421; 85.7% in the assay on SkMel28; 80.2% in the assay with SkMel2. Also, the cell count amounted to 103% with SkMel30; 81.4% in the assay on UACC62; 82.3% in the assay on WM115; 81.6% in the assay with WM1716; 73.6% with WM1745; 76.6% with WM3526. Moreover, the cell count was 83.7% in the assay on WM3619 and 93.1% in the assay on WM451Lu.
Consider `CC(C)(C)c1cnc(CSc2cnc(NC(=O)C3CCNCC3)s2)o1` + COc1ccc(-c2ccc3c(N4CCOCC4)nc(N4C[C@@H](C)O[C@@H](C)C4)nc3n2)cc1CO [KU0063794] (first compound 0.01 µM, partner dose 0.02 µM), for which the cell count with MZ2-MEL turned out to be 101%; in the assay on MeWo it was 92.4%; in the assay on RPMI7951 it was 91.7%; with RVH-421, 106%; in the assay on SkMel28, 95.3%; in the assay on SkMel30 it was 96.7%. Moreover, the cell count in the assay with SkMel5 is 101%; with UACC257, 81.1%; in the assay on UACC62 it was 83%; in the assay on WM115 it was 101%; in the assay with WM1716, 85%; in the assay on WM1745, 89.4%. Moreover, the cell count was found to be 97.7% with WM3526, 68.5% with WM3619 and 85.5% in the assay with WM451Lu.
Consider `CCCCCCCCc1ccc(CCC(N)(CO)CO)cc1` [fingolimod] + Cn1nnc2c(C(N)=O)ncn2c1=O [temozolomide] (first compound 2 µM, partner dose 2 µM), for which the cell count in the assay on MZ2-MEL is 95.4%; in the assay with MeWo, 86.4%; with RPMI7951, 82.4%; with RVH-421, 118%; in the assay with SkMel28, 93.6%; with SkMel2, 96.5%. Further, the cell count in the assay with SkMel30 came out at 92.2%; in the assay on UACC62, 70.3%; in the assay with WM115, 96.1%; with WM1716, 75.9%; in the assay with WM1745 it was 69.4%; in the assay with WM3526, 99.9%. The values for the cell count with WM3619 and in the assay on WM451Lu were 99.1% and 75.7%, respectively.
Turning to `CCCCCCCCc1ccc(CCC(N)(CO)CO)cc1` [fingolimod] + Nc1nc(F)nc2c1ncn2[C@@H]1O[C@H](CO)[C@@H](O)[C@@H]1O [fludarabine] (first compound 2 µM, partner dose 0.2 µM), the cell count is 99.1% in the assay on MZ2-MEL; 36.9% in the assay on MeWo; 61.5% with RPMI7951; 96.1% with RVH-421; 73.3% in the assay with SkMel28; 4.25% in the assay on SkMel2. In addition, the cell count with SkMel30 amounted to 14.8%; in the assay with UACC62, 79.5%; with WM115, 89.1%; in the assay with WM1716, 74.8%; in the assay with WM1745 it was 71.4%; with WM3526, 28.8%. Further, the cell count in the assay with WM3619 turned out to be 94.4%; in the assay with WM451Lu, 56.6%.
With `CCc1ccc(CCOc2ccc(CC3SC(=O)NC3=O)cc2)nc1` (configuration not stated) [pioglitazone] + Cn1cc(/C=C2\C(=O)Nc3cccnc32)c2ccccc21 [GW441756] (first compound 2 µM, partner dose 0.4 µM), the cell count was 94.2% with MZ2-MEL; 100% with MeWo; 102% in the assay on RPMI7951; 90.6% with RVH-421; 96.1% in the assay on SkMel28; 120% with SkMel30. The cell count in the assay on SkMel5 was found to be 90.5%; in the assay with UACC257, 92.2%; with UACC62, 96.5%; in the assay on WM115, 99.2%; in the assay with WM1716 it was 98.9%; in the assay on WM1745, 94.8%. Besides, the cell count came to 102% in the assay with WM3526, 110% in the assay on WM3619 and 130% in the assay on WM451Lu.
Turning to `CN(NC(=O)CC(=O)NN(C)C(=S)c1ccccc1)C(=S)c1ccccc1` + O=S(=O)(c1ccccc1)N(CC(F)(F)F)c1ccc(C(O)(C(F)(F)F)C(F)(F)F)cc1 [T0901317] (first compound 0.006 µM, partner dose 1.4 µM), the cell count with MZ2-MEL turned out to be 99.1%; with MeWo, 86.7%; in the assay with RPMI7951, 99.9%; in the assay with RVH-421, 89.6%; in the assay on SkMel28 it was 77.7%; in the assay with SkMel30, 96.1%. The cell count was 83.5% with SkMel5; 92.2% in the assay with UACC257; 87.7% with UACC62; 74.6% in the assay on WM115; 53.2% in the assay on WM1716; 56.6% in the assay with WM1745. The values for the cell count in the assay with WM3526, in the assay on WM3619 and in the assay with WM451Lu were 84.7%, 72.4% and 116%, respectively.
On to `COc1cc2c(Oc3ccc4[nH]c(C)cc4c3F)ncnc2cc1OCCCN1CCCC1` [cediranib] + Cn1cc(/C=C2\C(=O)Nc3cccnc32)c2ccccc21 [GW441756] (first compound 0.4 µM, partner dose 0.4 µM), for which the cell count in the assay on MZ2-MEL is 95%; in the assay on MeWo it was 106%; in the assay on RPMI7951, 95.6%; with RVH-421, 94.3%; in the assay with SkMel28 it was 83.4%; in the assay on SkMel30, 92.3%. For the same molecule, the cell count in the assay with SkMel5 amounted to 83.7%; in the assay with UACC257 it was 82.5%; in the assay with UACC62 it was 78.9%; in the assay with WM115 it was 95.6%; in the assay on WM1716, 103%; with WM1745, 85.8%. Moreover, the cell count in the assay on WM3526 was determined as 89.9%; with WM3619 it was 135%; with WM451Lu it was 118%.
In the case of `CCc1ccc(CCOc2ccc(CC3SC(=O)NC3=O)cc2)nc1` (configuration not stated) [pioglitazone] + CC(C)CCN1c2nc(Nc3cc(F)c(O)c(F)c3)ncc2N(C)C(=O)C1C [BID1870] (first compound 2 µM, partner dose 0.2 µM), the cell count in the assay on MZ2-MEL was found to be 103%; with MeWo, 86.3%; with RPMI7951, 91%; with RVH-421, 93.3%; in the assay with SkMel28, 79.7%; in the assay with SkMel30 it was 91%. For the same molecule, the cell count with SkMel5 came out at 97.1%; in the assay with UACC257, 81.8%; in the assay on UACC62, 73.5%; with WM115, 93%; with WM1716, 92.2%; in the assay on WM1745, 88.9%. Moreover, the cell count in the assay with WM3526 came to 69.2%; in the assay on WM3619 it was 101%; in the assay with WM451Lu it was 98.2%.
With `CC(C)(C)c1cnc(CSc2cnc(NC(=O)C3CCNCC3)s2)o1` + COc1cc(N2CCC(N3CCN(C)CC3)CC2)ccc1Nc1ncc(Cl)c(Nc2ccccc2S(=O)(=O)C(C)C)n1 [NVP-TAE684] (first compound 0.01 µM, partner dose 0.08 µM), the cell count in the assay on MZ2-MEL came out at 100%; in the assay with MeWo, 81.7%; in the assay with RPMI7951 it was 93.3%; in the assay with RVH-421 it was 80.8%; in the assay on SkMel28, 99.9%; with SkMel30, 122%. Also, the cell count with SkMel5 came out at 93.6%; in the assay with UACC257, 73.7%; in the assay with UACC62, 80.6%; in the assay on WM115, 92.9%; in the assay on WM1716, 88%; in the assay with WM1745, 78.1%. Moreover, the cell count in the assay with WM3526 came out at 110%; in the assay with WM3619, 103%; in the assay on WM451Lu, 102%.
As to `Cc1ccc(NC(=O)c2cccc(N(C)C)c2)cc1NC(=O)c1ccc(O)cc1` + COc1cc(N2CCC(N3CCN(C)CC3)CC2)ccc1Nc1ncc(Cl)c(Nc2ccccc2S(=O)(=O)C(C)C)n1 [NVP-TAE684] (first compound 2 µM, partner dose 0.08 µM), the cell count was 74.7% with MZ2-MEL; 99.4% in the assay on MeWo; 92.9% in the assay with RPMI7951; 96.9% in the assay with RVH-421; 90.1% with SkMel28; 78.2% with SkMel30. Also, the cell count in the assay on SkMel5 is 110%; in the assay with UACC257 it was 110%; with UACC62 it was 93.4%; in the assay with WM115, 98.6%; in the assay with WM1716, 104%; in the assay with WM1745, 88.4%. The values for the cell count in the assay on WM3526, with WM3619 and in the assay with WM451Lu were 116%, 93.2% and 83.3%, respectively.
